According to patent publication US20250057968A1, “ANTI-DLL3 ANTIBODY AND PHARMACEUTICAL USE THEREOF, AND ANTIBODY-DRUG CONJUGATE CONTAINING ANTI-DLL3 ANTIBODY” (Jiangsu Hengrui Pharmaceuticals Co., Ltd., priority 2021, published 2025):
Substitutions are numbered along the chain they refer to.

T1: human DLL3 (Homo sapiens, UniProt Q9NYJ7)
T1 construct: purchased ACRO DLL3-H52H4
T1 sequence (Q9NYJ7 27-492 limits assumed): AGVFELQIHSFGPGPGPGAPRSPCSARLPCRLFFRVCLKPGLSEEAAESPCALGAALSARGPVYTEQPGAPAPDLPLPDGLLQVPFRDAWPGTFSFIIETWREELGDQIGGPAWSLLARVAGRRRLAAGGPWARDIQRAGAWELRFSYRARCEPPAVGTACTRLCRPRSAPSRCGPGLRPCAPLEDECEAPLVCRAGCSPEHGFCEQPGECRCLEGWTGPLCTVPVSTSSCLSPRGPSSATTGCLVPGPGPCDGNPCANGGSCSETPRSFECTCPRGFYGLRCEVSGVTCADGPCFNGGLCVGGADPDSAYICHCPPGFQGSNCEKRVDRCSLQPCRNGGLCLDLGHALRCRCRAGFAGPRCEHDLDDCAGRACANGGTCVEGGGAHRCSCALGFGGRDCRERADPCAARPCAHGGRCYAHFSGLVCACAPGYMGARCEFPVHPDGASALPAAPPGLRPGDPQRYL

B1: hAb6L2H2: humanized antibody of mAb6: hAb6VH2 (SEQ ID NO: 33) + hAb6VL2 (SEQ ID NO: 46), constant regions SEQ ID NO: 28/29 (antibody)
heavy: EVQLVQSGAEVKKPGASVKVSCKASGYTFTDYYMNWVRQAPGQRLEWMGIINPYSGVTIYNHKFKGRVTLTVDKSANTAYMELSSLRSEDTAVYYCARQDSLLDYAMDYWGQGTTVTVSS[human IgG1 constant region not written out]
light: DIQMTQSPSSLSASVGDRVTITCHASQGISGNMGWLQQKPGKAPKGLIYHGANLEDGVPSRFSGSGSGADYTLTISSLQPEDFATYYCVQYAQFPYTFGGGTKVEIKRTVAAPSVFIFPPSDEQLKSGTASVVCLLNNFYPREAKVQWKVDNALQSGNSQESVTEQDSKDSTYSLSSTLTLSKADYEKHKVYACEVTHQGLSSPVTKSFNRGEC
B2: hAb6L3H1: humanized antibody of mAb6: hAb6VH1 (SEQ ID NO: 32) + hAb6VL3 (SEQ ID NO: 47), constant regions SEQ ID NO: 28/29 (antibody)
heavy: B1 heavy with L70I, N77S
light: B1 light with A43S, P44F
B3: hAb6L2H5: humanized antibody of mAb6: hAb6VH5 (SEQ ID NO: 36) + hAb6VL2 (SEQ ID NO: 46), constant regions SEQ ID NO: 28/29 (antibody)
heavy: EVQLVQSGSELKKPGASVKVSCKASGYTFTDYYMNWVRQAPGQGLEWMGIINPYSGVTIYNHKFKGRFVLSVDKSVSTAYLQISSLKAEDTAVYYCARQDSLLDYAMDYWGQGTTVTVSS[human IgG1 constant region not written out]
light: B1 light
B4: hAb6L2H11: humanized antibody of mAb6: hAb6VH11 (SEQ ID NO: 42) + hAb6VL2 (SEQ ID NO: 46), constant regions SEQ ID NO: 28/29 (antibody)
heavy: B3 heavy with R38K, V76S, S77N
light: B1 light
B5: hAb6L2H12: humanized antibody of mAb6: hAb6VH12 (SEQ ID NO: 43) + hAb6VL2 (SEQ ID NO: 46), constant regions SEQ ID NO: 28/29 (antibody)
heavy: B3 heavy with V69A, V76S, S77N
light: B1 light
B6: hAb6L2H6: humanized antibody of mAb6: hAb6VH6 (SEQ ID NO: 37) + hAb6VL2 (SEQ ID NO: 46), constant regions SEQ ID NO: 28/29 (antibody)
heavy: B3 heavy with V76S, S77N
light: B1 light
B7: hAb6L2H7: humanized antibody of mAb6: hAb6VH7 (SEQ ID NO: 38) + hAb6VL2 (SEQ ID NO: 46), constant regions SEQ ID NO: 28/29 (antibody)
heavy: EVQLVESGGGLVQPGGSLKLSCAASGYTFTDYYMNWVRQASGKGLEWVGIINPYSGVTIYNHKFKGRFTLSVDKSKNTAYLQMNSLKTEDTAVYYCARQDSLLDYAMDYWGQGTTVTVSS[human IgG1 constant region not written out]
light: B1 light
B8: hAb6L2H3: humanized antibody of mAb6: hAb6VH3 (SEQ ID NO: 34) + hAb6VL2 (SEQ ID NO: 46), constant regions SEQ ID NO: 28/29 (antibody)
heavy: B1 heavy with M48I, V68A
light: B1 light
B9: hAb100L2H1: humanized antibody of mAb100: hAb100VH1 (SEQ ID NO: 50) + hAb100VL2 (SEQ ID NO: 56), constant regions SEQ ID NO: 28/29 (antibody)
heavy: EVQLVESGGGLVKPGGSLRLSCAASGFTFSDSGMHWIRQAPGKGLEWVSYISSGSSTIHYADTVKGRFTISRDNAKNSLYLQMNSLRAEDTAVYYCASPLYYYGRSYNAVAYWGQGTTVTVSS[human IgG1 constant region not written out]
light: DIQMTQSPSSLSASVGDRVTITCHASQNINVWLSWYQQKPGKIPKLLIYKASDLHTGVPSRFSGSGSGTDFTLTISSLQPEDVATYYCQQGQSYPLTFGGGTKVEIKRTVAAPSVFIFPPSDEQLKSGTASVVCLLNNFYPREAKVQWKVDNALQSGNSQESVTEQDSKDSTYSLSSTLTLSKADYEKHKVYACEVTHQGLSSPVTKSFNRGEC
B10: hAb100L1H2: humanized antibody of mAb100: hAb100VH2 (SEQ ID NO: 51) + hAb100VL1 (SEQ ID NO: 55), constant regions SEQ ID NO: 28/29 (antibody)
heavy: B9 heavy with S49A
light: B9 light with I43V
B11: hAb100L2H3: humanized antibody of mAb100: hAb100VH3 (SEQ ID NO: 52) + hAb100VL2 (SEQ ID NO: 56), constant regions SEQ ID NO: 28/29 (antibody)
heavy: B9 heavy with S49A, Y102H
light: B9 light
B12: hAb100L2H2: humanized antibody of mAb100: hAb100VH2 (SEQ ID NO: 51) + hAb100VL2 (SEQ ID NO: 56), constant regions SEQ ID NO: 28/29 (antibody)
heavy: B9 heavy with S49A
light: B9 light
B13: M100CHI: anti-DLL3 chimeric antibody: mAb100 variable regions, human IgG1 (SEQ ID NO: 28) and κ (SEQ ID NO: 29) constant regions (antibody)
heavy: B9 heavy with R19K, G42E, S49A, S78T, Y80F, N84T, A88S, V93M, T118S
light: B9 light with T5N, V15L, R18T, V19I, K42N, D70G, V83I, V104L
B14: hAb100L1H4: humanized antibody of mAb100: hAb100VH4 (SEQ ID NO: 53) + hAb100VL1 (SEQ ID NO: 55), constant regions SEQ ID NO: 28/29 (antibody)
heavy: B9 heavy with S49A, A109G
light: B9 light with I43V
B15: hAb100L2H4: humanized antibody of mAb100: hAb100VH4 (SEQ ID NO: 53) + hAb100VL2 (SEQ ID NO: 56), constant regions SEQ ID NO: 28/29 (antibody)
heavy: B9 heavy with S49A, A109G
light: B9 light
B16: hAb100L1H3: humanized antibody of mAb100: hAb100VH3 (SEQ ID NO: 52) + hAb100VL1 (SEQ ID NO: 55), constant regions SEQ ID NO: 28/29 (antibody)
heavy: B9 heavy with S49A, Y102H
light: B9 light with I43V

target: T1, human DLL3; test: Biacore antibody affinity assay, human DLL3; type: binding
Description: Test antibodies were affinity-captured with a Protein A biosensor chip (Cat. #29127556, Cytiva) for 18 seconds, and then the antigens human DLL3 (ACRO, DLL3-H52H4), cynomolgus monkey DLL3 (KACTUS, DLL-RM103), and mouse DLL3 (KACTUS, DLL-MM103) were allowed to flow over the surface of the chip for 180 seconds, followed by 600 seconds of dissociation. Reaction signals were detected in real time using a Biacore 8K (Cytiva) instrument to obtain association and dissociation curves. After the dissociation in each experimental cycle, the biosensor chip was washed and regenerated with a 10 mM glycine-hydrochloric acid solution (pH 1.5) (Cat. #BR-1003-54, Cytiva). A 1:1 model was fit to the data. The results are shown in Table 12-1, Table 12-2, and Table 12-3.

Molecule	ka	kd
B1	704000 M⁻¹ s⁻¹	0.00116 s⁻¹
B2	715000 M⁻¹ s⁻¹	0.00144 s⁻¹
B3	810000 M⁻¹ s⁻¹	0.000784 s⁻¹
B4	2.06e+06 M⁻¹ s⁻¹	0.000749 s⁻¹
B5	1.98e+06 M⁻¹ s⁻¹	0.000913 s⁻¹
B6	863000 M⁻¹ s⁻¹	0.000756 s⁻¹
B7	670000 M⁻¹ s⁻¹	0.00205 s⁻¹
B8	695000 M⁻¹ s⁻¹	0.00139 s⁻¹
B9	572000 M⁻¹ s⁻¹	0.000629 s⁻¹
B10	781000 M⁻¹ s⁻¹	0.000365 s⁻¹
B11	404000 M⁻¹ s⁻¹	0.000268 s⁻¹
B12	848000 M⁻¹ s⁻¹	0.00037 s⁻¹
B13	1.03e+06 M⁻¹ s⁻¹	0.000546 s⁻¹
B14	348000 M⁻¹ s⁻¹	0.000254 s⁻¹
B15	652000 M⁻¹ s⁻¹	0.000655 s⁻¹
B16	832000 M⁻¹ s⁻¹	0.000352 s⁻¹
